Measurements published in the supplement of paper PMC8728848.
Some of the results follow.

Columns and labels:
Assay in all cases: glycan array binding signal (z-score within array); higher = stronger binding
Conditions in all cases: glycan notation: IUPAC condensed, linker removed
[1] = molecular target: Neu5Ac(a2-3)Gal(b1-3)[Fuc(a1-4)]GlcNAc
Summary of the method: (§1)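 Glycan array binding is given as a within-array Z-score, which can be read as non-binding when negative. The arrays, 3228 of them, came from the Consortium for Functional Glycomics database and were retained only where the protein sequence was available. Z-scores were averaged across arrays of the same protein sequence at different concentrations or buffers and across linkers.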

[2] = molecular target: Neu5Ac(a2-3)Gal(b1-3)[Fuc(a1-4)]GlcNAc(b1-3)Gal(b1-3)[Fuc(a1-4)]GlcNAc
Summary of the method: as §1

[3] = molecular target: Neu5Ac(a2-3)Gal(b1-3)[Fuc(a1-4)]GlcNAc(b1-3)Gal(b1-4)[Fuc(a1-3)]GlcNAc
Summary of the method: as §1

[4] = molecular target: Neu5Ac(a2-3)Gal(b1-3)[GlcNAc(b1-6)]GalNAc
Summary of the method: as §1

[5] = molecular target: Neu5Ac(a2-3)Gal(b1-3)[Neu5Ac(a2-6)]GalNAc
Summary of the method: as §1

[6] = molecular target: Neu5Ac(a2-3)Gal(b1-3)[Neu5Ac(a2-6)]GlcNAc(b1-3)[Fuc(a1-3)[Gal(b1-4)]GlcNAc(b1-6)]Gal(b1-4)Glc
Summary of the method: as §1

[7] = molecular target: Neu5Ac(a2-3)Gal(b1-3)]Neu5Ac(a2-3)Gal(b1-4)]GlcNAc
Summary of the method: as §1

[8] = molecular target: Neu5Ac(a2-3)Gal(b1-4)Glc
Summary of the method: as §1

[9] = molecular target: Neu5Ac(a2-3)Gal(b1-4)GlcNAc
Summary of the method: as §1

[10] = molecular target: Neu5Ac(a2-3)Gal(b1-4)GlcNAc(b1-2)Man
Summary of the method: as §1

[11] = molecular target: Neu5Ac(a2-3)Gal(b1-4)GlcNAc(b1-2)Man(a1-3)[GlcNAc(b1-4)][Neu5Ac(a2-3)Gal(b1-4)GlcNAc(b1-2)Man(a1-6)]Man(b1-4)GlcNAc(b1-4)GlcNAc
Summary of the method: as §1

[12] = molecular target: Neu5Ac(a2-3)Gal(b1-4)GlcNAc(b1-2)Man(a1-3)[Neu5Ac(a2-3)Gal(b1-4)GlcNAc(b1-2)Man(a1-6)]Man(b1-4)GlcNAc(b1-4)GlcNAc
Summary of the method: as §1

[13] = molecular target: Neu5Ac(a2-3)Gal(b1-4)GlcNAc(b1-2)Man(a1-3)[Neu5Ac(a2-3)Gal(b1-4)GlcNAc(b1-2)Man(a1-6)]Man(b1-4)GlcNAc(b1-4)[Fuc(a1-6)]GlcNAc
Summary of the method: as §1

[14] = molecular target: Neu5Ac(a2-3)Gal(b1-4)GlcNAc(b1-2)Man(a1-3)[Neu5Ac(a2-6)Gal(b1-4)GlcNAc(b1-2)Man(a1-6)]Man(b1-4)GlcNAc(b1-4)GlcNAc
Summary of the method: as §1

[15] = molecular target: Neu5Ac(a2-3)Gal(b1-4)GlcNAc(b1-2)[Neu5Ac(a2-3)Gal(b1-4)GlcNAc(b1-4)]Man(a1-3)[GlcNAc(b1-4)][Neu5Ac(a2-3)Gal(b1-4)GlcNAc(b1-2)[Neu5Ac(a2-3)Gal(b1-4)GlcNAc(b1-6)]Man(a1-6)]Man(b1-4)GlcNAc(b1-4)GlcNAc
Summary of the method: as §1

[16] = molecular target: Neu5Ac(a2-3)Gal(b1-4)GlcNAc(b1-2)[Neu5Ac(a2-3)Gal(b1-4)GlcNAc(b1-4)]Man(a1-3)[GlcNAc(b1-4)][Neu5Ac(a2-3)Gal(b1-4)GlcNAc(b1-4)Man(a1-6)]Man(b1-4)GlcNAc(b1-4)GlcNAc
Summary of the method: as §1

[17] = molecular target: Neu5Ac(a2-3)Gal(b1-4)GlcNAc(b1-2)[Neu5Ac(a2-3)Gal(b1-4)GlcNAc(b1-6)]Man(a1-6)[Neu5Ac(a2-3)Gal(b1-4)GlcNAc(b1-2)Man(a1-3)]Man(b1-4)GlcNAc(b1-4)GlcNAc
Summary of the method: as §1

[18] = molecular target: Neu5Ac(a2-3)Gal(b1-4)GlcNAc(b1-2)[Neu5Ac(a2-3)Gal(b1-4)GlcNAc(b1-6)]Man(a1-6)[Neu5Ac(a2-3)Gal(b1-4)GlcNAc(b1-2)Man(a1-3)][GlcNAc(b1-4)]Man(b1-4)GlcNAc(b1-4)GlcNAc
Summary of the method: as §1

[19] = molecular target: Neu5Ac(a2-3)Gal(b1-4)GlcNAc(b1-3)Gal
Summary of the method: as §1

[20] = molecular target: Neu5Ac(a2-3)Gal(b1-4)GlcNAc(b1-3)Gal(b1-3)GlcNAc
Summary of the method: as §1

[21] = molecular target: Neu5Ac(a2-3)Gal(b1-4)GlcNAc(b1-3)Gal(b1-4)GlcNAc
Summary of the method: as §1

[22] = molecular target: Neu5Ac(a2-3)Gal(b1-4)GlcNAc(b1-3)Gal(b1-4)GlcNAc(b1-2)Man(a1-3)[Neu5Ac(a2-3)Gal(b1-4)GlcNAc(b1-3)Gal(b1-4)GlcNAc(b1-2)Man(a1-6)]Man(b1-4)GlcNAc(b1-4)GlcNAc
Summary of the method: as §1

[23] = molecular target: Neu5Ac(a2-3)Gal(b1-4)GlcNAc(b1-3)Gal(b1-4)GlcNAc(b1-3)Gal(b1-4)GlcNAc
Summary of the method: as §1

[24] = molecular target: Neu5Ac(a2-3)Gal(b1-4)GlcNAc(b1-3)Gal(b1-4)GlcNAc(b1-3)Gal(b1-4)GlcNAc(b1-2)Man(a1-3)[Neu5Ac(a2-3)Gal(b1-4)GlcNAc(b1-3)Gal(b1-4)GlcNAc(b1-3)Gal(b1-4)GlcNAc(b1-2)Man(a1-6)]GalNAc
Summary of the method: as §1

[25] = molecular target: Neu5Ac(a2-3)Gal(b1-4)GlcNAc(b1-3)Gal(b1-4)GlcNAc(b1-3)GalNAc
Summary of the method: as §1

[26] = molecular target: Neu5Ac(a2-3)Gal(b1-4)GlcNAc(b1-3)Gal(b1-4)GlcNAc(b1-3)[Neu5Ac(a2-3)Gal(b1-4)GlcNAc(b1-3)Gal(b1-4)GlcNAc(b1-6)]GalNAc
Summary of the method: as §1

[27] = molecular target: Neu5Ac(a2-3)Gal(b1-4)GlcNAc(b1-3)Gal(b1-4)GlcNAc(b1-6)[Gal(b1-3)]GalNAc
Summary of the method: as §1

[28] = molecular target: Neu5Ac(a2-3)Gal(b1-4)GlcNAc(b1-3)Gal(b1-4)[Fuc(a1-3)]GlcNAc
Summary of the method: as §1

[29] = molecular target: Neu5Ac(a2-3)Gal(b1-4)GlcNAc(b1-3)GalNAc
Summary of the method: as §1

[30] = molecular target: Neu5Ac(a2-3)Gal(b1-4)GlcNAc(b1-3)[Neu5Ac(a2-3)Gal(b1-4)GlcNAc(b1-6)]GalNAc
Summary of the method: as §1

[31] = molecular target: Neu5Ac(a2-3)Gal(b1-4)GlcNAc(b1-6)GalNAc
Summary of the method: as §1

[32] = molecular target: Neu5Ac(a2-3)Gal(b1-4)GlcNAc(b1-6)[Gal(b1-3)]GalNAc
Summary of the method: as §1

[33] = molecular target: Neu5Ac(a2-3)Gal(b1-4)GlcNAc(b1-6)[Neu5Ac(a2-3)Gal(b1-3)]GalNAc
Summary of the method: as §1

[34] = molecular target: Neu5Ac(a2-3)Gal(b1-4)GlcNAc6S
Summary of the method: as §1

[35] = molecular target: Neu5Ac(a2-3)Gal(b1-4)[Fuc(a1-3)]GlcNAc
Summary of the method: as §1

[36] = molecular target: Neu5Ac(a2-3)Gal(b1-4)[Fuc(a1-3)]GlcNAc(b1-2)Man
Summary of the method: as §1

[37] = molecular target: Neu5Ac(a2-3)Gal(b1-4)[Fuc(a1-3)]GlcNAc(b1-3)Gal
Summary of the method: as §1

[38] = molecular target: Neu5Ac(a2-3)Gal(b1-4)[Fuc(a1-3)]GlcNAc(b1-3)Gal(b1-4)GlcNAc
Summary of the method: as §1

[39] = molecular target: Neu5Ac(a2-3)Gal(b1-4)[Fuc(a1-3)]GlcNAc(b1-3)Gal(b1-4)[Fuc(a1-3)]GlcNAc(b1-3)Gal(b1-4)[Fuc(a1-3)]GlcNAc
Summary of the method: as §1

[40] = molecular target: Neu5Ac(a2-3)Gal(b1-4)[Fuc(a1-3)]GlcNAc(b1-3)GalNAc
Summary of the method: as §1

[41] = molecular target: Neu5Ac(a2-3)Gal(b1-4)[Fuc(a1-3)]GlcNAc(b1-6)[Gal(b1-3)]GalNAc
Summary of the method: as §1

[42] = molecular target: Neu5Ac(a2-3)Gal(b1-4)[Fuc(a1-3)]GlcNAc(b1-6)[Neu5Ac(a2-3)Gal(b1-3)]GalNAc
Summary of the method: as §1

[43] = molecular target: Neu5Ac(a2-3)Gal(b1-4)[Fuc(a1-3)]GlcNAc6S
Summary of the method: as §1

[44] = molecular target: Neu5Ac(a2-3)Gal6S(b1-4)GlcNAc
Summary of the method: as §1

[45] = molecular target: Neu5Ac(a2-3)Gal6S(b1-4)[Fuc(a1-3)]GlcNAc
Summary of the method: as §1

B1: Cohesin-hDECTIN-1 (Homo sapiens) (protein)
chain: LDITSHHHHHHDDLDAVRIKVDTVNAKPGDTVRIPVRFSGIPSKGIANCDFVYSYDPNVLEIIEIEPGDIIVDPNPDKSFDTAVYPDRKIIVFLFAEDSGTGAYAITKDGVFATIVAKVKEGAPNGLSVIKFVEVGGFANNDLVEQKTQFFDGGVNVGDTTEPATPTTPVTTPTTTDDLDAASSSPCPPNWIIYEKSCYLFSMSLNSWDGSKRQCWQLGSNLLKIDSSNELGFIVKQVSSQPDNSFWIGLSRPQTEVPWLWEDGSTFSSNLFQIRTTATQENPSPNCVWIHVSVIYDQLCSVPSYSICEKKFM
B1 was tested, and the “glycan array binding signal (z-score)” value [1] was -0.24, the “glycan array binding signal (z-score)” value [2] was -0.192 and the “glycan array binding signal (z-score)” value [3] was -0.589. The “glycan array binding signal (z-score)” value [4] was -0.396, the “glycan array binding signal (z-score)” value [5] was -0.14 and the “glycan array binding signal (z-score)” value [6] was -0.605. The “glycan array binding signal (z-score)” value [7] was -0.231, the “glycan array binding signal (z-score)” value [8] was -0.374 and the “glycan array binding signal (z-score)” value [9] was -0.396. For the same binder, the “glycan array binding signal (z-score)” value [10] was 0.352, the “glycan array binding signal (z-score)” value [11] was -0.542 and the “glycan array binding signal (z-score)” value [12] was 0.52. For the same binder, the “glycan array binding signal (z-score)” value [13] was -0.434, the “glycan array binding signal (z-score)” value [14] was -0.644 and the “glycan array binding signal (z-score)” value [15] was 0.436. For the same binder, the “glycan array binding signal (z-score)” value [16] was 0.218, the “glycan array binding signal (z-score)” value [17] was -0.273 and the “glycan array binding signal (z-score)” value [18] was -0.428. For the same binder, the “glycan array binding signal (z-score)” value [19] was -0.468, the “glycan array binding signal (z-score)” value [20] was -0.289 and the “glycan array binding signal (z-score)” value [21] was -0.547. For the same binder, the “glycan array binding signal (z-score)” value [22] was -0.447, the “glycan array binding signal (z-score)” value [23] was -0.243 and the “glycan array binding signal (z-score)” value [24] was -0.295. For the same binder, the “glycan array binding signal (z-score)” value [25] was -0.213, the “glycan array binding signal (z-score)” value [26] was -0.246 and the “glycan array binding signal (z-score)” value [27] was -0.472. The “glycan array binding signal (z-score)” value [28] was -0.618, the “glycan array binding signal (z-score)” value [29] was -0.281 and the “glycan array binding signal (z-score)” value [30] was -0.163. The “glycan array binding signal (z-score)” value [31] was 2.61, the “glycan array binding signal (z-score)” value [32] was -0.363 and the “glycan array binding signal (z-score)” value [33] was -0.469. The “glycan array binding signal (z-score)” value [34] was -0.454, the “glycan array binding signal (z-score)” value [35] was -0.44 and the “glycan array binding signal (z-score)” value [36] was 0.439. The “glycan array binding signal (z-score)” value [37] was -0.497, the “glycan array binding signal (z-score)” value [38] was -0.448 and the “glycan array binding signal (z-score)” value [39] was -0.537. For the same binder, the “glycan array binding signal (z-score)” value [40] was -0.287, the “glycan array binding signal (z-score)” value [41] was -0.466 and the “glycan array binding signal (z-score)” value [42] was -0.412. The “glycan array binding signal (z-score)” value [43] was -0.344, the “glycan array binding signal (z-score)” value [44] was -0.516 and the “glycan array binding signal (z-score)” value [45] was -0.391.
